# Laboratory results taken from publication PMC4336329 (PLoS ONE, 2015).
# About 14,000 (4.5%) of roughly 310,000 compounds showed an effect of 50% or more. The effect is printed as a negative number. Some of the results follow.
# Molecular target: human ether-à-go-go-related gene (hERG) potassium channel (human, UniProt Q12809)
# Assay: primary screen, population patch clamp on CHO cells stably expressing hERG
# 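Note: peak tail current of the secondary pulse compared with the same well before compound.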
# human ether-à-go-go-related gene (hERG) potassium channel, sequence (Q12809 whole entry, looked up): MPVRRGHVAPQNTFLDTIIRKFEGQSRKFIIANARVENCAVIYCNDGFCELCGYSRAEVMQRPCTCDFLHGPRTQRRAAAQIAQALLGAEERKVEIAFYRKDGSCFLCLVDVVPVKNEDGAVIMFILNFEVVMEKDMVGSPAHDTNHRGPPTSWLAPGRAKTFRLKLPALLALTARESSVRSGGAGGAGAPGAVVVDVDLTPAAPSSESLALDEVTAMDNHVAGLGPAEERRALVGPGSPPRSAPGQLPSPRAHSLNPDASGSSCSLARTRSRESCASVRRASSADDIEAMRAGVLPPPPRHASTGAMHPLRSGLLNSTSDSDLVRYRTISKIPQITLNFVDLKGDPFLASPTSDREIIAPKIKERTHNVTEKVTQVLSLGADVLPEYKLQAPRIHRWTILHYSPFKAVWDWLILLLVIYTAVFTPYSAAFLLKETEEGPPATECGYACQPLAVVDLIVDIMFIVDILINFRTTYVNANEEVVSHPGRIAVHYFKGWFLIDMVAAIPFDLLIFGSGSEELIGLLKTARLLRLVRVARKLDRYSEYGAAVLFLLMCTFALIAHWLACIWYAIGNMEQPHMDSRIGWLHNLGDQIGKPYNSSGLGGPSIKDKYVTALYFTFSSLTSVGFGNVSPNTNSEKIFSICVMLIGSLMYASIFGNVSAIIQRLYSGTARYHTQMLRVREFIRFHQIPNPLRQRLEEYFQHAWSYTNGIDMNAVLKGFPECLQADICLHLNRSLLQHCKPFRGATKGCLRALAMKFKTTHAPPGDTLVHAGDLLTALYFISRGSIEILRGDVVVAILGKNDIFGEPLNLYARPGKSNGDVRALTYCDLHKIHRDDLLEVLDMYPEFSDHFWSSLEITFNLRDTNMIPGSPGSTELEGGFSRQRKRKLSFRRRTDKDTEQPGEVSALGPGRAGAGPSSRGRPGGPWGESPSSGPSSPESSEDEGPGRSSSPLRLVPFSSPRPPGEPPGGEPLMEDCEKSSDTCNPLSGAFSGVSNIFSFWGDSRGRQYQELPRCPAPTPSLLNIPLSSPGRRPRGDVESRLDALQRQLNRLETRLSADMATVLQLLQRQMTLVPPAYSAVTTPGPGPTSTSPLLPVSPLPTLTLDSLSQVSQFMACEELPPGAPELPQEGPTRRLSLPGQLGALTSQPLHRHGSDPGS
row,Compound,"hERG current change (%, negative = inhibition) at 10uM [%]"
1,Cc1cc2cc(CN(Cc3ccco3)C(=O)NCc3ccccc3)c(=O)[nH]c2cc1C,-6.54
2,Cc1cccc(NC(=O)NNC(=O)CCc2ccccc2)c1,5.32
3,O=C(O)C(=O)O.c1ccc(-c2cc(N3CCOCC3)nc3ccccc23)cc1,-11.6
4,CC(C)(C)n1cnc2cc(NCc3cccs3)ccc21,-28.2
5,C=CCNC(=S)/N=c1/ccccn1CCC,19.2
6,COc1ccccc1C(c1nnnn1CCc1ccccc1)N1CCCCCC1 (centres unmarked),-7.58
7,Cc1nc(SCC(=O)Nc2ccc3c(c2)OCCO3)c2oc3ccccc3c2n1,-9.24
8,COC(=O)c1ccc2c(c1)NC(=O)C(N(CC(C)C)CC(C)C)S2 (centres unmarked),1.28
9,COc1ccc(/C(O)=C/c2nc3ccc(C(=O)NCCc4cccc(C)c4)cc3[nH]c2=O)cc1OC,-11.2
10,CCOc1cc(N2CCOCC2)c(OCC)cc1NC(=O)CSc1ncn[nH]1,10.5
11,Oc1ccc(-c2cccc(-c3ccc(O)cc3)n2)cc1,15.5
12,O=c1cnnc(N/N=C/c2ccc3c(c2)OCO3)[nH]1,7.7
13,COc1ccc(CCn2c(=N)c(C(=O)NCC3CCCO3)cc3c(=O)n4ccccc4nc32)cc1OC (centres unmarked),-75.9
14,CC(=O)Nc1cc(-n2cnnn2)ccc1C,22.7
15,COC(=O)c1sc(NC(=S)NC(=O)c2ccccc2C)nc1C,17.6
16,C[C@H](C(=O)O)c1n[nH]c(=O)c2ccccc12,11.7
17,Cn1c(SCC(=O)N2CCCCCC2)nc2c(c1=O)SCC2,8.65
18,CCC(C)(C(=O)NC1CCCC1)N(CC1CCCO1)C(=O)CNC(=O)c1ccccc1 (centres unmarked),0.197
19,COc1ccc(C2(C(=O)NCCN3CCOCC3)CCOCC2)cc1,1.89
20,Oc1ccc(/C=N/Nc2cc(N3CCOCC3)nc(N3CCOCC3)n2)cc1O,-12.2
21,COc1ccc(-c2ccnc3nc(Sc4ncc(C(F)(F)F)cc4Cl)nn23)cc1,-19
22,Cc1cc(C)nc(SCC(=O)N(C)C)n1,12.8

row,Compound,"hERG current change (%, negative = inhibition) at 10uM [%]"
1,Cc1ccc(-c2nn(-c3ccccc3Cl)cc2C(=O)NCC2CCCO2)cc1 (centres unmarked),-0.0276
2,O=C(COc1ccc(Cl)cc1)NN=C1CCCCCCC1,-9.94
3,O=C(c1ccc(=O)[nH]n1)N1CCN(S(=O)(=O)c2ccc(C(F)(F)F)cc2)CC1,-15.5
4,CCOc1ccc(S(=O)(=O)NCCC(=O)N2CCC(Cc3ccccc3)CC2)cc1,-17.9
5,CC(ON1CC1(C(F)(F)F)C(F)(F)F)(C(N)=O)C(N)=O (centres unmarked),4.55
6,O=C(NCCC1=CCCCC1)c1ccc(F)c(S(=O)(=O)N2CCOCC2)c1,7.24
7,CN(c1ccc(C(=O)Nc2ccc(S(=O)(=O)N3CCCC3)cc2)cc1)S(C)(=O)=O,26.9
8,Cc1[nH]n(C(N)=S)c(=O)c1N=Nc1ccc(S(=O)(=O)N2CCCCCC2)cc1,-9.6
9,COc1cc(CCC(=O)OCC(=O)c2ccc[nH]2)cc(OC)c1OC,-2.96
10,CCCc1nn(C)c(C(N)=O)c1[N+](=O)[O-],6.34
11,CCCN(CCC)c1nc(-c2ccccn2)nc2ccccc12,-74.4
12,O=C(Nc1ccc(F)c([N+](=O)[O-])c1)C(=O)c1c(O)[nH]c2ccccc12,12.4
13,COC(=O)c1sccc1NC(=S)Nc1ccc(F)cc1,16.1
14,CCOC(=O)C1CCCN(Cc2c(Cl)cccc2Cl)C1 (centres unmarked),-6.47
15,Cc1ccc(-c2cc(C(=O)NN=C3CCCC3)c3ccccc3n2)cc1,4.39
16,CC(=O)c1ccc(NC(=O)CN(C)CC(=O)Nc2cccc(F)c2)cc1,-18.5
17,CCn1c(=O)c([N+](=O)[O-])c(N2CCOCC2)c2ccccc21,-7.79
18,N#Cc1cc(-c2ccccc2)oc1NC(=O)c1ccccc1,8.6
19,Cc1ccc(OCC(=O)Nc2ccc(S(=O)(=O)Nc3onc(C)c3C)cc2)cc1,7.72
20,C[C@H](NC(=O)c1[nH]cnc1C(=O)Nc1ccon1)c1ccccc1,23.5
21,COC(=O)c1cc(S(=O)(=O)NCC2CCN(CCc3cccs3)CC2)c[nH]1,-51.1
22,Cc1cccc(N2CCN(C(=O)CC(NC(=O)c3ccccc3Cl)c3ccccc3)CC2)c1C (centres unmarked),-59.9
